The values below come from US20050048512A1 (published 2005).

In this assay the target is T1, CD20 on Raji or Daudi cells (UniProt P11836 1-297, limits assumed).
T1 construct: whole, on cells
T1 sequence (looked up): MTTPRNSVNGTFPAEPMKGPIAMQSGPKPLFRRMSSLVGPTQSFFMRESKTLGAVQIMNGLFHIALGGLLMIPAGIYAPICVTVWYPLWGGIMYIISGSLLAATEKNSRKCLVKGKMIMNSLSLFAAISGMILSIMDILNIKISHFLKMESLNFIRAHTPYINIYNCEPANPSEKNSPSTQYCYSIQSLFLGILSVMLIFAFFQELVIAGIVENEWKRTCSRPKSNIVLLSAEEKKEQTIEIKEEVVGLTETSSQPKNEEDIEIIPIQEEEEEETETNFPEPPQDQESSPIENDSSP
In words: phage clone on Raji or Daudi cells with or without 1 mg/mL Rituxan.

B1: CD20 binding sequence 3 (designed binder)
chain: CLPGEFRCRGTSICIPPSWVCDGVDDCGDGSDEALEHCGDSHILPFSTPGPST
On to B1, for which the binding result is “binds”.

B2: CD20 binding sequence 5 (designed binder)
chain: CLPGEFRCRGTSICIPPSWVCDGVDDCGDGSDEALEHCGDSHILPFSTPGPST
Take B2: the binding result is “binds”.
